28 compounds from the antibiotic and cytotoxicity screens of Wong et al. (2023) can be followed below.

The list shows a part of the results.

Assay [1] deals with HSkMC (human skeletal muscle cells). The assay can be described thus: cytotoxicity call (relative viability < 0.9). The settings on record: 10 µM.
Assay [2] relates to HepG2. As to the kind of experiment: cytotoxicity call (relative viability < 0.9). The settings on record: 10 µM.
Assay [3] deals with S. aureus RN4220. The assay can be described thus: growth inhibition call (relative growth <= 0.2). To be noted: 50 µM.

In the case of `CC(C)(C(=O)c1cccnc1)c1cccnc1`, the cytotoxicity call in assay [1] and in assay [2] was “inactive” throughout. Further, in assay [3], the growth inhibition call is “inactive”.
`C[C@H](CO)N1C[C@H](C)[C@H](CN(C)Cc2ccc(Cl)c(Cl)c2)Oc2ccc(NC(=O)CCCCCC(=O)Nc3ccccc3N)cc2C1=O`: the cytotoxicity call in assay [1] and in assay [2] was “inactive” throughout. Further, in assay [3], the growth inhibition call is “inactive”.
As to `C[C@H](CO)N1C[C@H](C)[C@H](CN(C)C(=O)Nc2cccc3ccccc23)Oc2ncc(C#CCC3CCCC3)cc2C1=O`, the cytotoxicity call in assay [1] and in assay [2] was “inactive” throughout. The growth inhibition call in assay [3] is “inactive”.
Regarding `CON`, the cytotoxicity call in assay [1] and in assay [2] was “inactive” throughout. In addition, in assay [3], the growth inhibition call was “inactive”.
Turning to `Cc1ccc(S(=O)(=O)Nc2ccc3c(c2)C(=O)N([C@H](C)CO)C[C@@H](C)[C@H](CN(C)C(=O)Nc2ccccc2)OCCCC[C@H](C)O3)cc1`, the cytotoxicity call in assay [1] and in assay [2] was “inactive” in each case. In addition, the growth inhibition call in assay [3] was “inactive”.
Regarding `C[C@@H]1CN([C@H](C)CO)C(=O)CCCn2nncc2CO[C@@H]1CN(C)S(=O)(=O)c1ccc2c(c1)OCCCO2`, the cytotoxicity call in assay [1] and in assay [2] was “inactive” each time. In assay [3], the growth inhibition call is “inactive”.
Turning to `C[C@H]1CCCCO[C@H](CN(C)S(C)(=O)=O)[C@@H](C)CN([C@@H](C)CO)C(=O)c2cc(NS(C)(=O)=O)ccc2O1`, the cytotoxicity call in assay [1] and in assay [2] was “inactive” each time. Moreover, the growth inhibition call in assay [3] is “inactive”.
`C[C@H]1CN([C@@H](C)CO)C(=O)Cc2cc(NC(=O)c3ccncc3)ccc2O[C@H]1CN(C)C(=O)Nc1ccc2c(c1)OCO2`: the cytotoxicity call in assay [1] and in assay [2] was “inactive” throughout. The growth inhibition call in assay [3] is “inactive”.
For `C[C@H](CO)N1C[C@H](C)[C@@H](CN(C)Cc2ccc3c(c2)OCO3)OCCCC[C@H](C)Oc2ccc(NC(=O)Nc3ccc(F)cc3)cc2C1=O`, in assay [1], the cytotoxicity call is “inactive”. The cytotoxicity call in assay [2] was “active”. Moreover, the growth inhibition call in assay [3] was “inactive”.
With `C[C@@H]1CN([C@@H](C)CO)C(=O)c2cc(NC(=O)C3CCCCC3)ccc2O[C@H]1CN(C)Cc1ccc(C(F)(F)F)cc1`, the cytotoxicity call in assay [1] and in assay [2] was “inactive” throughout. The growth inhibition call in assay [3] is “inactive”.
For the compound `C[C@@H]1CN([C@@H](C)CO)C(=O)c2cc(NS(=O)(=O)c3ccc(F)cc3)ccc2O[C@@H](C)CCCCO[C@@H]1CN(C)Cc1ccccc1`, the cytotoxicity call in assay [1] and in assay [2] was “inactive” in each case. For the same compound, the growth inhibition call in assay [3] was “inactive”.
For `C[C@H](CO)N1C[C@H](C)[C@@H](CN(C)C(=O)Nc2ccc(F)cc2)Oc2ccc(NC(=O)CCN3CCOCC3)cc2CC1=O`, the cytotoxicity call in assay [1] and in assay [2] was “inactive” in each case. Further, the growth inhibition call in assay [3] is “inactive”.
For `O=C(NOC[C@H](O)CO)c1cc(Br)c(F)c(F)c1Nc1ccc(I)cc1F`, the cytotoxicity call in assay [1] and in assay [2] was “inactive” in each case. Further, the growth inhibition call in assay [3] is “inactive”.
Take `CC(C)NC(=O)N(C)C[C@@H]1Oc2ccc(NS(=O)(=O)c3cn(C)cn3)cc2C(=O)N([C@H](C)CO)C[C@H]1C`: the cytotoxicity call in assay [1] and in assay [2] was “inactive” in each case. For the same compound, in assay [3], the growth inhibition call was “inactive”.
Regarding `C[C@H]1CN([C@@H](C)CO)C(=O)Cc2cc(NC(=O)Cn3cnnn3)ccc2O[C@H]1CN(C)C(=O)NC1CCCCC1`, the cytotoxicity call in assay [1] and in assay [2] was “inactive” in each case. In addition, the growth inhibition call in assay [3] was “inactive”.
In the case of `COc1ccc(S(=O)(=O)N(C)C[C@H]2OCCCC[C@@H](C)Oc3ccc(NC(=O)NC4CCCCC4)cc3C(=O)N([C@@H](C)CO)C[C@H]2C)cc1`, in assay [1], the cytotoxicity call was “inactive”. Moreover, in assay [2], the cytotoxicity call was “active”. For the same compound, the growth inhibition call in assay [3] is “inactive”.
Take `Cc1ccc(S(=O)(=O)Nc2ccc3c(c2)C(=O)N([C@@H](C)CO)C[C@@H](C)[C@@H](CN(C)C(=O)Nc2cccc4ccccc24)OCCCC[C@@H](C)O3)cc1`: the cytotoxicity call in assay [1] and in assay [2] was “inactive” throughout. Further, in assay [3], the growth inhibition call is “inactive”.
Turning to `CNC[C@@H]1OCCCC[C@H](C)Oc2ccc(NS(=O)(=O)c3c(C)noc3C)cc2C(=O)N([C@@H](C)CO)C[C@@H]1C`, the cytotoxicity call in assay [1] and in assay [2] was “inactive” throughout. The growth inhibition call in assay [3] is “inactive”.
Turning to `CCCN(CCC)[NH2+][O-]`, the cytotoxicity call in assay [1] and in assay [2] was “inactive” in each case. In assay [3], the growth inhibition call was “inactive”.
Consider `C[C@@H]1CCCCO[C@@H](CN(C)Cc2ccc(Cl)c(Cl)c2)[C@@H](C)CN([C@H](C)CO)C(=O)c2cc(NS(=O)(=O)c3cccs3)ccc2O1`, for which the cytotoxicity call in assay [1] and in assay [2] was “inactive” each time. Also, the growth inhibition call in assay [3] was “inactive”.
`O=C(O)c1ccc2nc(O)c(=O)[nH]c2c1`: the cytotoxicity call in assay [1] and in assay [2] was “inactive” in each case. For the same compound, the growth inhibition call in assay [3] was “inactive”.
In the case of `O=C(c1cccc2ccccc12)N(C1CCCC1)C1CCCC1`, the cytotoxicity call in assay [1] and in assay [2] was “inactive” in each case. In addition, the growth inhibition call in assay [3] is “inactive”.
On to `COc1ccc(NC(=O)N(C)C[C@H]2Oc3c(NC(=O)c4ccc(-c5nccs5)cc4)cccc3C(=O)N([C@@H](C)CO)C[C@H]2C)cc1`, for which the cytotoxicity call in assay [1] and in assay [2] was “inactive” each time. In addition, in assay [3], the growth inhibition call is “inactive”.
For `CO[C@@H]1CN(C)C(=O)c2cc(NC(=O)Nc3cccc(F)c3)ccc2OC[C@@H](C)N(C(=O)Nc2c(C)noc2C)C[C@@H]1C`, the cytotoxicity call in assay [1] and in assay [2] was “inactive” in each case. Also, in assay [3], the growth inhibition call was “inactive”.
On to `COc1ccc(COC[C@@]23Oc4ccccc4[C@@H](NC(=S)N2C)[C@@H]3CO[Si](C)(C)C(C)(C)C)cc1`, for which, in assay [1], the cytotoxicity call is “inactive”. The cytotoxicity call in assay [2] is “active”. In addition, the growth inhibition call in assay [3] is “inactive”.
For the compound `Cc1ccc(S(=O)(=O)N(C)C[C@@H]2Oc3c(NS(C)(=O)=O)cccc3C(=O)N([C@@H](C)CO)C[C@@H]2C)cc1`, the cytotoxicity call in assay [1] and in assay [2] was “inactive” each time. Further, the growth inhibition call in assay [3] is “inactive”.
As to `CON=C(C(=O)NC1C(=O)N2C(C(=O)[O-])=C(COC(C)=O)CSC12)c1csc(N)n1.[Na+]` (centres undefined), the cytotoxicity call in assay [1] and in assay [2] was “inactive” in each case. Besides, the growth inhibition call in assay [3] is “active”.
For the compound `COc1ccc(S(=O)(=O)N(C)C[C@H]2OCCCC[C@@H](C)Oc3ccc(NS(=O)(=O)c4cn(C)cn4)cc3C(=O)N([C@@H](C)CO)C[C@H]2C)cc1`, the cytotoxicity call in assay [1] and in assay [2] was “inactive” each time. Besides, in assay [3], the growth inhibition call is “inactive”.
